Assay results published in the RNAGym collection of RNA variant scans (doi:10.1073/pnas.2313332121).
This sample is rich in variants without activity.

B1: TPR 5TU (parent)
chain: GGAUCUUCUCGAUCUAACAAAAAAGACAAAUCUGCCACAAAGCUUGAGAGCAUCUUCGGAUGCAGAGGCGGCAGCCUUCGGUGGCGCGAUAGCGCCAACGUUCUCAACUAUGACACGCAAAACGCGUGCUCCGUUGAAUGGAGUUUAUCAUG

Variants of: B1
Experiment: polymerase ribozyme fitness, log enrichment relative to wild type (log ratio); higher = more active; in vitro selection for triplet polymerase activity
Procedure, shortened: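 Mutant libraries for each subunit of a heterodimeric triplet polymerase ribozyme were made by PCR and then transcribed. Each library underwent one round of in vitro selection in triplicate: annealing with a biotinylated primer, the partner subunit and triplets, frozen incubation at −7 °C, gel excision of extended constructs, streptavidin-bead capture and RT-PCR. Input and output libraries were Illumina-sequenced, and only genotypes with ≥10 input reads and ≥1 read per output were kept. Fitness is the logarithm, base 2, of genotype enrichment over wild-type enrichment, computed from inverse-variance-weighted replicate averages.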

Variant	polymerase ribozyme fitness (log ratio)
A24G C38U U55A G58A A60C A73G C95A	≤ -4.2
A24U U45A	-3
A24C C36A A49U G65A U82G G92C U130A U139G	≤ -4.2
A24U A49C	≤ -4.2
A24G C75U G84U	≤ -4.2
A24C C32G C87A U146C	≤ -4.2
A24C A52U U53A U61A C76A U78G U104G	≤ -4.2
A23U G86U	≤ -4.2
G25A A41C A52G G67U G83U G136A	≤ -4.2
A24C A39C U77G C125G	≤ -4.2
A24G A73G G92U G133U G141A	≤ -4.2
A24C C57U U61A C95G	≤ -4.2
A24G U56A A60U G65U A91U C96G A120U	≤ -4.2
A24C G42A C76U U77G	≤ -4.2
A24G U53C C54A G94C C123A G126C U134A U148A	≤ -4.2
A24G C69A G86A G88A C99A A137U	≤ -4.2
A24U A49G A73G C75G U101A	≤ -4.2
A24G U31C	-3.52
A24U C63G U77C U144A	≤ -4.2
G25A U56A	-1.67
A24G C36G U56A C103G A106U C118A	≤ -4.2

Variant	polymerase ribozyme fitness (log ratio)
A23U G83C G88A A98U A120U C131G A150C	≤ -4.2
A24C U53G C93A C125U U130A A138C	≤ -4.2
A24U U56A	0.265
A24U U90A C103A	≤ -4.2
G25A C27G A30C C32G G68A C87A A107U	≤ -4.2
A23U G71A C85A U144G	≤ -4.2
A24U A37C C75U A97C A110C G141U U144G U145A	≤ -4.2
A24G G92A	≤ -4.2
A24G G50C C87U	≤ -4.2
A24G G80A C96A U111C	≤ -4.2
A23U U33G U44A G81A A91G C116U C123G U127C	≤ -4.2
A24U G50C C57U C79G C118G U148C	≤ -4.2
A24U C32G G86A C114U	≤ -4.2
G25A C35G C79G C95U A150U	≤ -4.2
A24G C87G C93U C103U A106U G141C	≤ -4.2
A24C G81U C87G U104G A110U	≤ -4.2
A23U G83U G94U U104A U134A G136U C149G	≤ -4.2
A24C A29C C35A G124U	≤ -4.2
A24C A29C C87A A89U G141C	≤ -4.2
A24C U78A G92C	≤ -4.2
A24G A28C A30U G58A C96U C103U	≤ -4.2

Variant	polymerase ribozyme fitness (log ratio)
A24U A41U A107G	≤ -4.2
A24U A52C G58U G71U C79A G88U U134C U148G	≤ -4.2
A24C A41C G84U	≤ -4.2
A24U U148C	-2.14
A24C G59A A91C A120G	≤ -4.2
A23U U31C G70A G83U U127C G128U G143A	≤ -4.2
A24U G84U	-2.26
A24U G50U G59A	0.438
G25A C35U A66U G94A A138G U151G	≤ -4.2
A24U G83U C85G G126U	≤ -4.2
A23U U33A A41C A47U U102C U135A	≤ -4.2
G25A C51U G92U A119U G124U	-3.78
A24U A28U A39C G59C A60U A66G G68C C79G G81A C116G C125U	≤ -4.2
A24C C85U U104G A138U	≤ -4.2
A24U G83A G84A C105A G128C	≤ -4.2
A23U G50C A89U C95A C103A A110U A113G C116G G143U U144A U148G	≤ -4.2
A24C U56A G59A C93A U127A	≤ -4.2
A24G U45G U53A C85U A119C A137C	≤ -4.2
A24U C72U C85G A137G A142C	≤ -4.2
G25A A30G U53A	≤ -4.2
A23U G83U C93A G126U C129U	≤ -4.2

Variant	polymerase ribozyme fitness (log ratio)
A24U A41C C96A C108U G136U	≤ -4.2
A24G U31C C32A A47C U56A C57G C85U G117A G141C	≤ -4.2
G25A A26C C63G A66G C72U G80U G92U A98U U109C G152C	≤ -4.2
G25A C51U G59C G88A U102G G136U	≤ -4.2
A24C G68U A121G U151G	≤ -4.2
A24C A49U G92U	≤ -4.2
A24C A37C G59A C99G A107U	≤ -4.2
A24U A60G C79G C96G U109C	≤ -4.2
A24U U33C C35G C63A G68U C87U	≤ -4.2
A24C A28U U31A A122C G141C G152U	≤ -4.2
A24U A40G C72A	≤ -4.2
A24C C54U U56A C69G C85A C103U U148G	≤ -4.2
A24C A66G C96G C103A A120G	≤ -4.2
A24G C54U C76G C85G C114U	≤ -4.2
A23U U61A C87A C108A U109C	≤ -4.2
A24U U31G G48A U55A G83A A120G A121C	≤ -4.2
A24C A41C A150G	≤ -4.2
A24C C35A A40C U55G U56A G59U	≤ -4.2
G25A U31A G46A A91U C93U G112A A138G	≤ -4.2
A24G C93A	≤ -4.2
